Experimental data from PMC7159923.
These are yes or no findings as the source states them, for the method shown. In cells and extracts the contact can be indirect. Some entries that bind do so weakly or less than the wild type.

Chains of the proteins cited; added tags and fusions are not shown. Lines headed by an entry give the natural chain unless they say otherwise; changes in a name come on top. A line that says so, or that is headed by a name, gives the form on record, which may keep a tag or linker. Residues count along the entry.
UniProt Q6DN90: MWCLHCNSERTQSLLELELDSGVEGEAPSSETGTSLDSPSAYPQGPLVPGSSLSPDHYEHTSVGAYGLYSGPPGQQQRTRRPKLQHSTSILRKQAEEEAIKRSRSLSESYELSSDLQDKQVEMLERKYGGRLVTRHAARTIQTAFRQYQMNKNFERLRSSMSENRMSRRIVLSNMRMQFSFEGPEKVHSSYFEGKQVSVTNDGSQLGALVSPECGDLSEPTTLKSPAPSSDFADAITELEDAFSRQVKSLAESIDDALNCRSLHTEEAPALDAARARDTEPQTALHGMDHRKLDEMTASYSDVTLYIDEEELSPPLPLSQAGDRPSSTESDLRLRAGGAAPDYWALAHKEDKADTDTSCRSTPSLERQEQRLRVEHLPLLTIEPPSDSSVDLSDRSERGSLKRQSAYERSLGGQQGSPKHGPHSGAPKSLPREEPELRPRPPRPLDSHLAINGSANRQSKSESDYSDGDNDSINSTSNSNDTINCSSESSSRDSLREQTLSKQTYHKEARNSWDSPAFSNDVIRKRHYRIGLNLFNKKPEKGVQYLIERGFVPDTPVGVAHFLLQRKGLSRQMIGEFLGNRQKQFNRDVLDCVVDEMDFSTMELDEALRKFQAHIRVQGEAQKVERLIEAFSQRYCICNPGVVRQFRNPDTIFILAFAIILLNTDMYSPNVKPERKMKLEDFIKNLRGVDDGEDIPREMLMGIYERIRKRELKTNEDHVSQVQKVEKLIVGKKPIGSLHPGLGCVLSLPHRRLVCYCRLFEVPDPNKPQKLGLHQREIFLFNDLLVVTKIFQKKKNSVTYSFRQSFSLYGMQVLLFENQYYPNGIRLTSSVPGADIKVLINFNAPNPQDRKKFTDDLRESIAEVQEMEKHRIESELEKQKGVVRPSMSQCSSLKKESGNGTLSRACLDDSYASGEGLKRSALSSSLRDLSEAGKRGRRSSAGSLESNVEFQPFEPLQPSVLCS
mCherry-IQSec1^116-870: residues 130-884 of Q6DN90
mCherry-IQSec1^116-833: residues 130-847 of Q6DN90
mCherry-IQSec1^116-759: residues 130-773 of Q6DN90
mCherry-IQSec1^116-502: residues 130-516 of Q6DN90
mCherry-IQSec1^116-245: residues 130-259 of Q6DN90
mCherry-IQSec1^116-212: residues 130-226 of Q6DN90
GST-IQSec1^152-212: residues 166-226 of Q6DN90
mCherry-IQSec1 (Q6DN90-3, form named): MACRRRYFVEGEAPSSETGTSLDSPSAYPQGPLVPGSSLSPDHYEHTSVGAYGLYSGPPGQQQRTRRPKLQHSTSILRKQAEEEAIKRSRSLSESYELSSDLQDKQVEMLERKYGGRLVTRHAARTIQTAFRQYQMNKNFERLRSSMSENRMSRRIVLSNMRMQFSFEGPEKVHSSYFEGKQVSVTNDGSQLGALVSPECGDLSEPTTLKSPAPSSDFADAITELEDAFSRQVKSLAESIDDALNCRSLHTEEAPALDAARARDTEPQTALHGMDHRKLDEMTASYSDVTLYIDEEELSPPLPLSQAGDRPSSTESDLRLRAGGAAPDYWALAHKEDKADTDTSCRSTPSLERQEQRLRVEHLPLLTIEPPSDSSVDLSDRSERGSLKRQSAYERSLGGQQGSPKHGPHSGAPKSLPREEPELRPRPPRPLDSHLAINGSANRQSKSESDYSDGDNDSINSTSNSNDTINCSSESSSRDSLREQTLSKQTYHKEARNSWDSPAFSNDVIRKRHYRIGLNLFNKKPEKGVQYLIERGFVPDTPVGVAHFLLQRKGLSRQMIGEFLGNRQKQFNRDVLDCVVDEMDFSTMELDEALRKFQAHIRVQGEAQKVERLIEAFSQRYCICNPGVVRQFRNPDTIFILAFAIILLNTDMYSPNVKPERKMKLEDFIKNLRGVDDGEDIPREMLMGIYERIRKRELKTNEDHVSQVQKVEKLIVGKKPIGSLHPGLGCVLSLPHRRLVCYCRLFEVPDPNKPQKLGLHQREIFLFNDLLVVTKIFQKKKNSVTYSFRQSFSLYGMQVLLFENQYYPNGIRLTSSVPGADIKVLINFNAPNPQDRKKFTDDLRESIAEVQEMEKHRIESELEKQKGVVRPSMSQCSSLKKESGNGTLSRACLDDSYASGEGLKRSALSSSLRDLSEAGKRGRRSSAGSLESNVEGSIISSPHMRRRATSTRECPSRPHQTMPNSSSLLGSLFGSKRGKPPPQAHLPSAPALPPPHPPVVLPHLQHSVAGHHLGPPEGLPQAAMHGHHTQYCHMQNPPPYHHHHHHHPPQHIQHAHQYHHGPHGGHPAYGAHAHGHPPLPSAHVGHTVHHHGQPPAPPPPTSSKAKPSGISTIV
mCherry-IQSec1^116-1114 (Q6DN90-3, form named): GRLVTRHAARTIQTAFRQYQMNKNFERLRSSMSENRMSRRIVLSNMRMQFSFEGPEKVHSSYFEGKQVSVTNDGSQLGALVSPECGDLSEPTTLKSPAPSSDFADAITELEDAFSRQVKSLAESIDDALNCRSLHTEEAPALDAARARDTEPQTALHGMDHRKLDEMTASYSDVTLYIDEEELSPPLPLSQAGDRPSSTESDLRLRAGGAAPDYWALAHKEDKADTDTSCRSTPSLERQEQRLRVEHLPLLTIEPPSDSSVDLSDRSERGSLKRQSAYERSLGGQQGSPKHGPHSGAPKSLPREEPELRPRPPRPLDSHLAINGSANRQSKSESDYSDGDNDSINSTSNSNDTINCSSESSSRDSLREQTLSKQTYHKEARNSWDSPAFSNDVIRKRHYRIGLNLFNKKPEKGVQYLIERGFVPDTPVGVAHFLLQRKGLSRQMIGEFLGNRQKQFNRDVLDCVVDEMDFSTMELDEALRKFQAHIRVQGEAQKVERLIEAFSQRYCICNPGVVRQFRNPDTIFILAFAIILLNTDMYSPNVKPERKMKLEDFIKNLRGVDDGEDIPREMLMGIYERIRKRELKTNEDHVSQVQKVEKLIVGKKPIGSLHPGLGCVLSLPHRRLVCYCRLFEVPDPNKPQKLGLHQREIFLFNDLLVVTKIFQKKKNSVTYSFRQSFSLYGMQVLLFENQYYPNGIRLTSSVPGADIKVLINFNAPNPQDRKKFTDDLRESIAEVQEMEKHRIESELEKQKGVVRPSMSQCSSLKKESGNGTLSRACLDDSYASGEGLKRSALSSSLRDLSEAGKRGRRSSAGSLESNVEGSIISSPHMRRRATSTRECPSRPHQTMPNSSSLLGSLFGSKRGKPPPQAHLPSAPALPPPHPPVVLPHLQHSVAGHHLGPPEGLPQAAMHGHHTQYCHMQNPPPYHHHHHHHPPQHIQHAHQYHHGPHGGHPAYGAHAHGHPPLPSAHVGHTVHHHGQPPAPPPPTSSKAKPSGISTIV
mCherry-IQSec1∆^152-212 (Q6DN90-3, form named): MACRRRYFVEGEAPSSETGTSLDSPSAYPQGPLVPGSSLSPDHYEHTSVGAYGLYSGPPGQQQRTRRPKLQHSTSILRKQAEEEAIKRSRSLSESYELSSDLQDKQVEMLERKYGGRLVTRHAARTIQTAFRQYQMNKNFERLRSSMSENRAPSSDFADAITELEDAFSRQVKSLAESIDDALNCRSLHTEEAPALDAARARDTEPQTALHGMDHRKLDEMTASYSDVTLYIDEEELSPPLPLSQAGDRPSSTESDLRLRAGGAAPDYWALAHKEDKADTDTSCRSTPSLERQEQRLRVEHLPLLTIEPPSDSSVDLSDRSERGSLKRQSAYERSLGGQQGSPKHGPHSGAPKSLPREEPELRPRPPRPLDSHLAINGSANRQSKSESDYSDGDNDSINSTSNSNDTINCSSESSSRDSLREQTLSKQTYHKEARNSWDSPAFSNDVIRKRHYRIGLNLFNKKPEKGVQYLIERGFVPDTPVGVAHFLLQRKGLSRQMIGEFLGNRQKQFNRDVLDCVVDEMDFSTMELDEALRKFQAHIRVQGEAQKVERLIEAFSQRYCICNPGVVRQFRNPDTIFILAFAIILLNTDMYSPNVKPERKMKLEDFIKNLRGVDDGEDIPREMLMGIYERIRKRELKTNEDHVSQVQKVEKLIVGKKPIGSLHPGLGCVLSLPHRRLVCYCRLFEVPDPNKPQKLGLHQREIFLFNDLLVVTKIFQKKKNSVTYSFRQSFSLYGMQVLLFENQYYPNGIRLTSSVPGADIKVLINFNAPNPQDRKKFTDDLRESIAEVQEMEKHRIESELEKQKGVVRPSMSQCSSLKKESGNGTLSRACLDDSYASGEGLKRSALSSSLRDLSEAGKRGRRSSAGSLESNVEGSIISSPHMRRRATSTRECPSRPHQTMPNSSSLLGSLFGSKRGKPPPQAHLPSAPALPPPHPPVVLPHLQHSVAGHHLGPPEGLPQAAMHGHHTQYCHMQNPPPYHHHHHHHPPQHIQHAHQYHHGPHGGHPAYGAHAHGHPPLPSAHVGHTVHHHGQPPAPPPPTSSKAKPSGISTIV
UniProt Q9H4L5: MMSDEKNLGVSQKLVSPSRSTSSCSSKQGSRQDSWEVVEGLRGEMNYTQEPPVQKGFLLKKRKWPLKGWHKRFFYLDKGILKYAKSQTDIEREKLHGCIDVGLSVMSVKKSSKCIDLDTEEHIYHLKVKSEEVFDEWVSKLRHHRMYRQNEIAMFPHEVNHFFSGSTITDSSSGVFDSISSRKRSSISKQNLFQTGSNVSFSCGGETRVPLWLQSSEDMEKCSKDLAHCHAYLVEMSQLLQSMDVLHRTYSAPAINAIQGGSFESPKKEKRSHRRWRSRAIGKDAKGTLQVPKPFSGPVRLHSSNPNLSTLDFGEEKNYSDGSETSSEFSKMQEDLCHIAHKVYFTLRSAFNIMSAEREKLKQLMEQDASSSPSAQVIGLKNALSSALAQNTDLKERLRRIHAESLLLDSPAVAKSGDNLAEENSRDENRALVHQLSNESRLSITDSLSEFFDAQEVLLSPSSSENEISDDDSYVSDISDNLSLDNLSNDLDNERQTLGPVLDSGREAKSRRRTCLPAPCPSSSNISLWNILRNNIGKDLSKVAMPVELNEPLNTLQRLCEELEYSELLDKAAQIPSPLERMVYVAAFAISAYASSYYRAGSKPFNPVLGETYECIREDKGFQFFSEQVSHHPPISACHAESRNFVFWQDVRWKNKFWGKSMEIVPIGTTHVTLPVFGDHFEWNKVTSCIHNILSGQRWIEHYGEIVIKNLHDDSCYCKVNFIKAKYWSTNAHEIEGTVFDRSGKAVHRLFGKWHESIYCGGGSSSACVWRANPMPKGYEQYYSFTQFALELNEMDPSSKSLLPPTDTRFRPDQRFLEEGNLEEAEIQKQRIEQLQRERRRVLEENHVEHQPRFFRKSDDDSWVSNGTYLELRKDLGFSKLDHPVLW

What was measured:
mCherry-IQSec1 (human) [1] = biological target: mCherry-IQSec1 (human) (UniProt Q6DN90); assay: co-IP; lysates of HEK-293 cells co-expressing mCherry-IQSec1 (WT or mutants) and GFP-ORP3 (WT or mutants); immunoprecipitated with anti-mCherry antibody and protein A beads, NP-40 lysis buffer, 4°C; probed for GFP
[2] = biological target: GST-IQSec1^152-212 (human) (UniProt Q6DN90); assay: pull-down; lysate of HEK-293 cells expressing mCherry-ORP3, not treated with phosphatase, incubated 60 min with beads containing 10 µg of GST alone or GST-IQSec1 152-212; immunoblot with anti-mCherry; only the target purified
[3] = biological target: GST-IQSec1^152-212 (human) (UniProt Q6DN90); assay: condition: only after λ-phosphatase treatment of the lysate; pull-down; lysate of cells expressing mCherry-ORP3 supplemented with MnCl2 (1 mM) and incubated with 2000 Units of λ-phosphatase for 3 hr at 30°C, then with GST or GST-IQSec1 152-212 beads 60 min; washed with lysis buffer containing 1% NP-40; only the target purified
GFP-ORP3 (human) = GFP-ORP3 (human) (UniProt Q9H4L5); assay: co-IP; lysates of cells co-expressing mCherry-IQSec1 and GFP-ORP3; GFP-ORP3 precipitated (GFP-TRAP beads; ORP3 immunoprecipitates), probed for mCherry-IQSec1; cells also treated with thapsigargin (1 µM), BTP2 (25 µM), PMA (2.5 µM) or Gö6983 (20 µM): more with thapsigargin or PMA, less with BTP2 or Gö6983
mCherry-IQSec1 (human) [4] = biological target: mCherry-IQSec1 (human) (UniProt Q6DN90); assay: co-IP; cells expressing equivalent amounts of ORP3 and IQSec1, transfected with increasing amounts of vector encoding VAP-A; IQSec1 immunoprecipitated, blot probed for co-precipitating proteins
[5] = biological target: mCherry-IQSec1^116-1114 (human) (UniProt Q6DN90); assay: co-IP; lysates of HEK-293 cells co-expressing mCherry-IQSec1 (WT or mutants) and GFP-ORP3 (WT or mutants); immunoprecipitated with anti-mCherry antibody and protein A beads, NP-40 lysis buffer, 4°C; probed for GFP
[6] = biological target: mCherry-IQSec1^116-212 (human) (UniProt Q6DN90); assay: as above
[7] = biological target: mCherry-IQSec1^116-245 (human) (UniProt Q6DN90); assay: as above
[8] = biological target: mCherry-IQSec1^116-502 (human) (UniProt Q6DN90); assay: as above
[9] = biological target: mCherry-IQSec1^116-759 (human) (UniProt Q6DN90); assay: as above
[10] = biological target: mCherry-IQSec1^116-833 (human) (UniProt Q6DN90); assay: as above
[11] = biological target: mCherry-IQSec1^116-870 (human) (UniProt Q6DN90); assay: as above
[12] = biological target: mCherry-IQSec1∆^152-212 (human) (UniProt Q6DN90); assay: as above

Substance: GFP-ORP3Δ^ORD (1-555) (from UniProt Q9H4L5 1-555) (domain or fragment)
- binding (mCherry-IQSec1 (human) [1]): binds

Substance: ORP3^1-445 (from UniProt Q9H4L5 1-445) (domain or fragment)
- binding (mCherry-IQSec1 (human) [1]): no binding

Substance: mCherry-ORP3 (from UniProt Q9H4L5 1-887)
- binding [2]: binds
- binding [3]: no binding

Substance: ORP3^398-886 (from UniProt Q9H4L5 398-886) (domain or fragment)
- binding (mCherry-IQSec1 (human) [1]): no binding

Substance: mCherry-IQSec1 (from UniProt Q6DN90-3 1-1114)
- binding (GFP-ORP3 (human)): binds

Substance: GFP-ORP3 (from UniProt Q9H4L5 1-887)
- binding (mCherry-IQSec1 (human) [4]): binds
- binding (mCherry-IQSec1 (human) [1]): binds
- binding [5]: binds
- binding [6]: binds
- binding [7]: binds
- binding [8]: binds
- binding [9]: binds
- binding [10]: binds
- binding [11]: binds
- binding [12]: no binding
